Measured values published in PubChem BioAssay AID1671188 (National Center for Advancing Translational Sciences (NCATS), 2021).
Among all 100,000 compounds or so, about 250 (0.25%) were called active. Inconclusive results, whose numbers are uncertain, are shown with a selection of clear calls. Calls follow the shape of the dose curve; as a rule, active = well fitted inhibition curve with a large enough effect; inconclusive = small, poorly fitted or top-dose-only effect; inactive = flat fitted curve, though single readings scatter. No potency is given beside an inconclusive call; the fits are too rough.

What follows are compounds tested against Alanine aminotransferase 2 (Homo sapiens) (UniProt Q8TD30) (assay: Primary qHTS assay for inhibitors of Glutamate pyruvate transaminase 2 (GPT2)). Conditions: Recombinant GPT2, coupled pyruvate oxidase/HRP Amplex Red fluorescence; series mostly up to 57.7 µM.
Sequence of UniProt Q8TD30 (Q8TD30 whole entry, looked up): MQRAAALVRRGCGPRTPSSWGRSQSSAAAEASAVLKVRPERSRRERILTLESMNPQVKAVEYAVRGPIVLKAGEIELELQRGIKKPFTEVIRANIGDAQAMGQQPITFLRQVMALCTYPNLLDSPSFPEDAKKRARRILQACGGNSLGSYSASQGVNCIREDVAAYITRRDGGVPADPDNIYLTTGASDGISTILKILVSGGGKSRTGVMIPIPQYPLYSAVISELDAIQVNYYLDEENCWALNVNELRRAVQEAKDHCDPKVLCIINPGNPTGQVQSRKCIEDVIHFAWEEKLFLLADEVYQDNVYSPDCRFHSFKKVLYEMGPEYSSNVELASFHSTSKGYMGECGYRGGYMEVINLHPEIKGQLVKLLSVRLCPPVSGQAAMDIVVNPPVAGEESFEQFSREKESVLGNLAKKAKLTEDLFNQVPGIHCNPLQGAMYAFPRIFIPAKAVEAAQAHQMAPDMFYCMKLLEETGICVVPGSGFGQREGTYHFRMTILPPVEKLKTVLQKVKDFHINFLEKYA
Summary of the method: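 Fluorescence of coupled pyruvate oxidase/HRP/Amplex Red system (50uM Amplex, 30 min, dark) reports pyruvate formed by GPT2. Enzyme reaction: 10ng/uL GPT2, 2mM L-alanine, 250uM a-KG, 30 min room temperature, pH 7.5; 50uM AOA control.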
Also: nearly all actives have a fitted effect of over 60% in size.
Potency is read from the fitted curve at half-maximal effect; tags tell the direction and shape of the fitted curve.

| Structure (SMILES) | Potency |
| --- | --- |
| O=C(NCC1CCN(c2cc(-c3ccccc3)[nH]n2)CC1)c1ccc[nH]c1=O | inconclusive [inhibitor, full curve] |
| Cc1ccc(C2(C(=O)N3CCC4(CC3)CNC(C(=O)O)C4)CC2)cc1 (stereo unspecified) | inconclusive [inhibitor, single point] |
| O=C(Nc1ccc([C@@H](O)[C@H]2COCC(=O)N2CCCc2ccccc2)cc1)C1CCC1 | inconclusive [inhibitor, partial curve, poor fit] |
| COC(=O)[C@@H]1Cc2c([nH]c3ccccc23)[C@H]2C[C@@H](NCCN3CCOCC3)C[C@@H](c3ccccc3F)N21 | inconclusive [inhibitor, full curve, poor fit] |
| N#Cc1ccc(C(=O)N2CCC3(CC2)N=C(N)c2c(F)ccc(F)c2N3)cn1 | inconclusive [inhibitor, single point] |
| Cc1ccc(CNC(=O)C2CN(S(=O)(=O)c3cccnc3)CC23CCCCC3)o1 (stereo unspecified) | inactive |
| CN(C)c1ccc(C(=O)N2CCN(S(C)(=O)=O)[C@H](C(=O)N[C@@H](CC3CCCCC3)C(N)=O)C2)cc1 | inconclusive [inhibitor, single point] |
| Cc1ccc(-c2cc(N3CCCN(C(=O)c4ccccc4C)CC3)n[nH]2)cc1C | inconclusive [inhibitor, single point] |
| CCOC(=O)C1CCN(Cc2nnc3cc(-c4nc(-c5ccccc5)no4)ccn23)CC1 | inconclusive [inhibitor, single point] |
| CCCNc1cc(N2CCC(CCC(=O)Nc3cccc(C)c3)CC2)ncn1 | inconclusive [inhibitor, partial curve] |
| Cc1ccc(C(=O)N2CCCN(c3cc(-c4ccc(C)c(C)c4)[nH]n3)CC2)cc1C | inconclusive [inhibitor, single point] |
| CC(=O)Nc1ccc(CN2CCN(Cc3ccccc3)C(CCO)C2)cc1 (stereo unspecified) | inconclusive [inhibitor, single point] |
| O=C(O)C1(Cc2cccc(Nc3nccs3)n2)CCC(Oc2cccc(Cl)c2F)CC1 (stereo unspecified) | inconclusive [inhibitor, single point] |
| COCc1ccc2c(c1)c(OC(C)(C)C(N)=O)nn2Cc1cccc(OC)c1 | inactive |
| CCC(O)(C(=O)OCc1ccccc1NC(=O)CCC(=O)O)C(C)O (stereo unspecified) | inconclusive [inhibitor, single point] |
| CCCNc1cc(N2CCC(CCC(=O)NCc3cccc(OC)c3)CC2)ncn1 | inactive |
